Assay results: the antibiotic and cytotoxicity screens of Wong et al. (2023)
Some of the results follow.

How the values were obtained:
HSkMC = human skeletal muscle cells; assay: cytotoxicity call (relative viability < 0.9); conditions: 10 µM
HepG2 = assay: cytotoxicity call (relative viability < 0.9); conditions: 10 µM
S. aureus RN4220 = assay: growth inhibition call (relative growth <= 0.2); conditions: 50 µM

COc1ccc(NC(=O)N(C)C[C@H]2Oc3ccc(NC(=O)CCN4CCOCC4)cc3CC(=O)N([C@@H](C)CO)C[C@H]2C)cc1
inactive: cytotoxicity call (HSkMC) | cytotoxicity call (HepG2) | growth inhibition call (S. aureus RN4220)

Cc1ccc(S[C@]2(C(=O)NCc3ccccc3)CC(=O)N(Cc3cc(C(F)(F)F)cc(C(F)(F)F)c3)[C@@H]2c2ccc(CO)cc2I)cc1
inactive: cytotoxicity call (HSkMC) | cytotoxicity call (HepG2) | growth inhibition call (S. aureus RN4220)

C[C@@H]1CN([C@@H](C)CO)S(=O)(=O)c2ccc(Br)cc2O[C@@H]1CN(C)C(=O)c1ccc(F)cc1
inactive: cytotoxicity call (HSkMC) | cytotoxicity call (HepG2) | growth inhibition call (S. aureus RN4220)
